Assay results: PubChem BioAssay AID720709 (National Center for Advancing Translational Sciences (NCATS), 2013)
About 520 (0.14%) of roughly 360,000 compounds were called active. This list was built around the results that the source calls inconclusive (neither active nor inactive); the mix of calls is not that of the screen. Calls follow the shape of the dose curve; as a rule, active = well fitted inhibition curve with a large enough effect; inconclusive = small, poorly fitted or top-dose-only effect; inactive = no such curve, though single readings can be large or run the other way. Potencies of inconclusive entries are left out as doubtful fits.

What follows are compounds tested against Rap guanine nucleotide exchange factor 3 (Homo sapiens) (UniProt O95398) (assay: qHTS for Antagonist of cAMP-regulated guanine nucleotide exchange factor 3 (EPAC1): primary screen). Settings: EPAC1 GEF assay, Rap1b-BODIPY-GDP exchange fluorescence; activity change, negative = inhibition: at 115 µM (top of the series).
Sequence of UniProt O95398 (O95398 whole entry, looked up): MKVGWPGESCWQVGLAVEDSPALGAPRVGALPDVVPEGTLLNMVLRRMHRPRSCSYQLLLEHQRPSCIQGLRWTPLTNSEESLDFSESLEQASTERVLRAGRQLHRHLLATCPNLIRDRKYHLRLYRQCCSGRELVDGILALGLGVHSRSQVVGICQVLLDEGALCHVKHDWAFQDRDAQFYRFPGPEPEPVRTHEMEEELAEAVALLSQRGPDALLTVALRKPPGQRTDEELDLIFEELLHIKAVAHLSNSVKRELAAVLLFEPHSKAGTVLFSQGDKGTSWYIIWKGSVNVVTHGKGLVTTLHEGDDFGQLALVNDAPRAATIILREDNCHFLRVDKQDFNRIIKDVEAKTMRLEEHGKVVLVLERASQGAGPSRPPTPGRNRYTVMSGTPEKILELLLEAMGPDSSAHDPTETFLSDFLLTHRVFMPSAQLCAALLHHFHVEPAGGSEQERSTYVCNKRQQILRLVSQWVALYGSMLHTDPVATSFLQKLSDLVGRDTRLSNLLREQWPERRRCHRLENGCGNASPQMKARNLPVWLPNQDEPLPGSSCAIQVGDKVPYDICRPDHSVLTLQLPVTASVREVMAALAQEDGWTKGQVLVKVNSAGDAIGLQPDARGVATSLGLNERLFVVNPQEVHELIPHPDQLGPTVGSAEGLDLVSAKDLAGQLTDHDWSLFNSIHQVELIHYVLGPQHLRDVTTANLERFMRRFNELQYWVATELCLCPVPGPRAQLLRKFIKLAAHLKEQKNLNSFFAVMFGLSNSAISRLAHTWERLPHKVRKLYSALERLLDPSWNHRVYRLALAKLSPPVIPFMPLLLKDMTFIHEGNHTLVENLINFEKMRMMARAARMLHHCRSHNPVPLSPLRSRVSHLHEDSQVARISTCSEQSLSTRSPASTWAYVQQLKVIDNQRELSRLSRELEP
Also: nearly all actives have a fitted effect of over 50% in size.
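For activity change, negative = inhibition in this document: plate controls were vehicle for no effect and positive control for full effect.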
Potency is read from the fitted curve at half-maximal effect; tags tell the direction and shape of the fitted curve.

Structure (SMILES) | Potency | activity change, negative = inhibition
CC(C)CNC(=O)CN(C)S(=O)(=O)c1ccc(F)cc1 | inconclusive [inhibitor, full curve, poor fit] | –
CN(C(=O)C=Cc1ccccc1)c1ccccc1 | inactive | –
N#C/C(=N\Nc1ccc(S(=O)(=O)N2CCc3ccccc32)cc1)C(N)=S | inconclusive [inhibitor, full curve, poor fit] | –
Cc1c(Cl)cccc1N=Cc1ccc([N+](=O)[O-])s1 | inconclusive [inhibitor, single point] | –
COc1ccc(CN(C2CCCC2)S(=O)(=O)c2ccc(-n3cnnn3)cc2)cc1 | inactive | –
CCc1nn2c(=O)cc(COc3ccc(/C=C4\C(=N)N5N=C(C)SC5=NC4=O)cc3)nc2s1 | inconclusive [inhibitor, single point] | –
COc1ccc(CCN2CC(C(=O)OCC(=O)NCc3ccccc3Cl)CC2=O)cc1OC (centres undefined) | inconclusive [inhibitor, single point] | –
Cc1ccc(C(=O)Nc2cccc(-c3ccc(N4CCOCC4)nn3)c2)cc1C | inconclusive [inhibitor, full curve] | –
O=C(COc1cc2oc(=O)cc(-c3ccccc3)c2cc1Cl)NCc1ccccn1 | inconclusive [inhibitor, single point] | –
COc1cc(C)nc(N2CCCC(C(=O)NC3CCC(C)CC3)C2)n1 (centres undefined) | inactive | –
N#CC(C#N)=Cc1cc2ccccc2nc1N1CCCCC1 | inconclusive [inhibitor, partial curve] | –
COc1ccc(C2NC(=O)NC(C)=C2C(=O)OCc2ccccc2)cc1 (centres undefined) | inactive | –
Cc1ccc(N2C(=O)N(C(C)C)C(C)(C)CC2(C)O)cc1 (centres undefined) | – | inconclusive: 12.6% [inhibitor]
Cc1cccc(Cn2c(C)c(C)c3cc(C(=O)NCCN4CCOCC4)ccc32)c1 | inconclusive [inhibitor, partial curve] | –
O=C(Nc1sc2c(c1C(=O)O)CCC2)c1ccccc1F | inconclusive [inhibitor, partial curve] | –
CCCC(=O)N1CC(=O)Nc2ccc(C)cc2C1c1ccccc1 (centres undefined) | inconclusive [inhibitor, single point] | –
O=c1[nH]cnc2c1C1(CCCC1)Cc1ccccc1-2 | inconclusive [inhibitor, partial curve] | –
Cc1ccn2c(-c3csc(NCc4ccccc4)n3)c(C)nc2c1 | inactive | –
COc1ccc(C2=NN(c3ccccc3)C(=O)/C2=C\c2ccc(O)c(OC)c2)cc1 | inconclusive [inhibitor, partial curve] | –
Cc1ccc(C(=O)OCC(=O)Nc2sc3c(c2C#N)CCCC3)cc1NC(=O)c1ccco1 | inactive | –
COc1cccc(COC(=O)C2CCN(S(=O)(=O)c3cccs3)CC2)c1OC | inconclusive [inhibitor, full curve, poor fit] | –
CNS(=O)(=O)c1cc2c3c(cccc3c1)C(=O)NC2=O | inactive | –

Structure (SMILES) | Potency | activity change, negative = inhibition
COC(=O)[C@]1(Cc2ccccc2)N[C@H](CN(C)C(=O)c2ccc(F)cc2)[C@@H]2C(=O)N(C)C(=O)[C@@H]21 | inconclusive [inhibitor, single point] | –
Cc1cc(=O)oc2cc(OCc3ccc(S(=O)(=O)N4CCOCC4)cc3)ccc12 | inconclusive [inhibitor, partial curve] | –
CC(=O)Nc1cccc(C(=O)N2CCN(S(=O)(=O)c3ccc(C4CCCCC4)cc3)CC2)c1 | inconclusive [inhibitor, single point] | –
COc1cc(-c2nc(CN3CCN(CC(C)C)C(=O)[C@@H]3C)c(C)o2)ccc1F | inconclusive [inhibitor, partial curve] | –
CCn1c(=O)c2ccccc2n(Cc2cccc(C)c2)c1=O | inconclusive [inhibitor, full curve, poor fit] | –
Cc1ccc(S(=O)(=O)N2CCCCC2)cc1C(=O)Nc1ccc(S(=O)(=O)Nc2ncccn2)cc1 | inactive | –
COc1ccc(N(C(=O)c2snc(C(N)=O)c2N)C(C(=O)NC2CCCC2)c2cccs2)cc1OC (centres undefined) | active: 50.1 µM | –
COc1cccc(NC(=S)N2CCn3cccc3C2c2cccnc2)c1 (centres undefined) | inconclusive [inhibitor, single point] | –
CCc1cc[n+](C2=C([O-])c3ccccc3C(=O)/C2=N\S(=O)(=O)c2cccs2)cc1 | inconclusive [inhibitor, partial curve] | –
COc1ccc(C2=NS(=O)(=O)N(C)C(C(=O)NC(C)c3ccccc3)=C2)cc1OC (centres undefined) | – | inconclusive: -30.4% [inhibitor]
O=C(O)COc1ccc(Cl)cc1C1CCCCC1 | inconclusive [inhibitor, single point] | –
O=C(Nc1ccc(F)cc1)C1C(c2ccccc2)C1(Cl)Cl (centres undefined) | inconclusive [inhibitor, full curve, poor fit] | –
N/C(=N\OC(=O)/C=C/c1ccccc1Cl)c1ccccn1 | inactive | –
O=C1Nc2ccccc2N(O)N1c1ccc(S(=O)(=O)Nc2ccccn2)cc1 | inconclusive [inhibitor, single point] | –
CCCCC(=O)Nc1ccc(C(=O)NCCc2ccccc2)cc1 | inconclusive [inhibitor, full curve, poor fit] | –
C=CCS/C(N)=N\N=C\c1c(O)ccc2ccccc12 | inconclusive [inhibitor, full curve, poor fit] | –
CC1=C(C(=O)NC2CCC(C)CC2)C2(CCC(C)CC2)OC1=O (centres undefined) | inconclusive [inhibitor, single point] | –
CCc1ccc(Cn2nnc(C(=O)NCc3ccccc3OC)c2N)cc1 | inconclusive [inhibitor, partial curve] | –
CC1CCN(C(=O)c2[nH]cnc2C(=O)N[C@@H](Cc2ccccc2)C(=O)OC(C)(C)C)CC1 | inconclusive [inhibitor, single point] | –
CCOc1cc(/C=C(/C#N)c2ccc(Cl)cc2)cc(Cl)c1OCC(=O)O | inconclusive [inhibitor, single point] | –
CC(C)(C)c1ccc(-n2nc(C#N)c(Cl)cc2=O)cc1 | inconclusive [inhibitor, full curve] | –
O=C(OCC1OC(n2ncc(=O)[nH]c2=O)C(OC(=O)c2ccccc2)C1OC(=O)c1ccccc1)c1ccccc1 (centres undefined) | inconclusive [inhibitor, single point] | –

Structure (SMILES) | Potency | activity change, negative = inhibition
N#C/C(=C\c1ccc([N+](=O)[O-])o1)C(=O)Nc1ccc(F)cc1 | inconclusive [inhibitor, full curve] | –
CCn1cc(C(=O)N[C@H](C(=O)NCCCn2ccnc2)C(C)C)c(=O)c2cc3c(cc21)OCO3 | inconclusive [inhibitor, full curve] | –
Cc1cc(SCC(=O)NCCN2C(=O)CSC2=O)nc2c(C)cccc12 | – | inconclusive: -6.27% [inhibitor]
Cc1nc(-c2ccccc2)sc1C(=O)Nc1ccccc1F | inconclusive [inhibitor, full curve, poor fit] | –
CCOC(=O)Cn1cnc2scc(-c3ccc(C)cc3)c2c1=O | inconclusive [inhibitor, single point] | –
O=C(NCCNC(=O)c1cnccn1)c1ccc(Cl)cc1 | inconclusive [inhibitor, single point] | –
CC1CCC(C(C)C)C(OC(=O)COC(=O)c2cc(O)ccc2N)C1 (centres undefined) | inconclusive [inhibitor, full curve, poor fit] | –
CC(C)(C)C1CCC(C(=O)OCC(=O)N2CCOCC2)CC1 (centres undefined) | inconclusive [inhibitor, single point] | –
COc1cccc(NC(=O)CN2C(=O)NC(c3ccccc3)(c3ccccc3)C2=O)c1 | inconclusive [inhibitor, full curve, poor fit] | –
CC(NC(=O)COC(=O)[C@@H]1CCCN1S(=O)(=O)c1ccccc1F)C12CC3CC(CC(C3)C1)C2 (some centres undefined) | inconclusive [inhibitor, partial curve, poor fit] | –
O=[N+]([O-])c1cc(S(=O)(=O)Oc2ccccc2)ccc1Cl | inconclusive [inhibitor, single point] | –
c1coc(-c2nnc(-c3ccco3)nn2)c1 | inconclusive [inhibitor, partial curve] | –
O=C(c1ccc2nc(N3CCOCC3)sc2c1)N1CCCC1 | inactive | –
CSCCCN1CCCC(CO)(Cc2ccc(F)cc2)C1 (centres undefined) | inconclusive [inhibitor, single point] | –
COc1cc(/C=N/NC(=O)c2ccc3c(c2)OCCO3)cc(Br)c1O | inconclusive [inhibitor, partial curve, poor fit] | –
O=C(Nc1nc2ccccc2[nH]1)c1cccc(Cl)c1 | inconclusive [inhibitor, full curve, poor fit] | –
O=[N+]([O-])c1ccc(Cc2ccccn2)c([N+](=O)[O-])c1 | inconclusive [inhibitor, single point] | –
CCn1c(=O)c(C(=O)NNC(=O)c2ccccc2Br)c(O)c2ccccc21 | inconclusive [inhibitor, single point] | –
CC1CN(C(C)C)C(C)CC1OC(=O)c1ccccc1 (centres undefined) | inconclusive [inhibitor, single point] | –
COc1ccccc1CNS(=O)(=O)c1ccc(-n2cnnn2)c(OC)c1 | inactive | –
